Values joined by “and” are separate entries in the source; they are usually repeats but may differ in a detail not shown here. Equal values may be shown once. The whole screen tested about 420,000 compounds, of which about 50,000 (12%) were called active. Inconclusive results, whose numbers are uncertain, are shown with a selection of clear calls. Calls come from the whole dose curve; as a rule, active = well fitted inhibition curve with a large enough effect; inconclusive = small, poorly fitted or top-dose-only effect; inactive = flat fitted curve, though single readings scatter. Potencies of inconclusive entries are doubtful fits and often do not repeat.
Experiment: qHTS for Inhibitors of human tyrosyl-DNA phosphodiesterase 1 (TDP1): qHTS in cells in presence of CPT; note: nearly all actives have a fitted effect of over 55% in size
Conditions: chicken DT40 Tdp1-/-;hTDP1 cells + 20 nM CPT, ATP luminescence, 48 h; activity change, negative = growth inhibition: at 46.2 µM (top of the series) unless noted
How it was run: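 Chicken DT40 Tdp1-/- cells stably complemented with human TDP1 were seeded at 400 cells/well in medium containing 20 nM camptothecin, exposed to pin-transferred compounds, and grown at 37 °C for at least 48 hr. Viability was read as ATP luminescence.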
% is set by controls: 0 for no effect and ±100 for the full control effect; potency is the fitted concentration of half-maximal effect; tags give direction and shape of the fitted curve.

Compound | Potency | activity change, negative = growth inhibition
COc1ccccc1CNC(=S)NCc1ccc(Cl)cc1 | inconclusive: 29.1 µM [inhibitor, single point] | 
O=c1[nH]c2ccccc2n1Cc1ccc(Cl)cc1 | inactive | 
COc1ccc(NC(=O)CN2C(=O)NC(c3ccccc3)(c3ccccc3)C2=O)cc1OC | inconclusive: 16.4 µM [inhibitor, partial curve] | 
CC(C)(C)SCCNC(=O)/C=C/c1cccc([N+](=O)[O-])c1 | inactive | 
Cc1cccc(N2CCN(S(=O)(=O)c3ccc4c(c3)C(C(C)C)C(=O)N4)CC2)c1C (stereo unspecified) | active: 5.17 µM | 
CCn1cc(CN2CCC(n3nccc3NC(=O)CCc3ccccc3)CC2)cn1 | inactive | 
CCOC(=O)c1ncn2c1[C@@H]1CCNC1C(=O)c1cc(OC)ccc1-2 (stereo partly specified) | inconclusive: 6.51 µM [inhibitor, partial curve] | 
Cc1ccc(-c2nnc(SCC(=O)c3ccc(Cl)cc3)n2-c2ccccc2)cc1 | active: 4.61 µM | 
O=c1c2ccccc2nc(SCc2cccc(F)c2)n1Cc1ccco1 | inactive | 
Cc1ccc2nc(CSc3nc(C)cc(C)c3C#N)[nH]c2c1 | inconclusive: 16.4 µM [inhibitor, single point] | 
Cc1ccc(Cc2c(C)nc3nc(SCC(=O)NCCCN4CCCCCC4)nn3c2C)cc1 | inconclusive: 25.9 µM [inhibitor, single point] | 
COc1ccc(/C(C)=N/N2C(=O)c3ccccc3NC2c2ccc(O)c(OC)c2)cc1 (stereo unspecified) | inactive | 
COc1ccc(NC(=O)CN2C(=O)NC(C)(c3ccc4c(c3)OCO4)C2=O)cc1S(N)(=O)=O (stereo unspecified) | inactive | 
COc1ccc(OCC(=O)N2CCN(S(=O)(=O)c3ccc4c(c3)OCCO4)CC2)cc1 |  | inconclusive: -32.8% [inhibitor]
COc1cc(/C=N\Nc2ccc([N+](=O)[O-])cc2)ccc1OCC(=O)Nc1ccc(C)c(C)c1 | inconclusive: 16.4 µM [inhibitor, single point] | 
CCOC(=O)C(Cc1c[nH]c2ccc([N+](=O)[O-])cc12)(NC(C)=O)C(=O)OCC | inconclusive: 18.4 µM [inhibitor, single point] | 
COc1ccc(-c2noc(=O)n2CC(=O)N2CCC(Cc3ccccc3)CC2)cc1 | inconclusive: 20.6 µM [inhibitor, single point] | 
CCOC(=O)C1=C[C@@H](C(C)(C)C)N(S(=O)(=O)c2ccc(C)cc2)[C@H]1c1cccc2ccccc12 | inconclusive: 25.9 µM [inhibitor, single point] | 
CC(C)(O)C#Cc1ccc(CN2CCCC(CNC(=O)c3ccco3)C2)cc1 (stereo unspecified) | inactive | 
CCOC(=O)C1CCCN(C(=O)c2ccc(F)c(C)c2)CC1 (stereo unspecified) | inconclusive: 29.1 µM [inhibitor, single point] | 
COC(=O)C(Cc1ccccc1)NCC(=O)Nc1cccc(Cl)c1C (stereo unspecified) | inactive | 
CCCOc1ccc(C(=O)NC(=S)N2CCN(c3cc4c(cc3F)c(=O)c(C(=O)O)cn4CC)CC2)cc1 | active: 16.4 µM | 
C=CCNC(=O)C1CC2Cn3c(nc4cc(Cl)c(Cl)cc43)C2N1C (stereo unspecified) | inactive | 
CCOc1ccc(CNC(=O)c2ccc3c(c2)N(CC)CCS3)cc1 | inconclusive: 29.1 µM [inhibitor, single point] and inconclusive: 16.4 µM [inhibitor, single point] | 

Compound | Potency | activity change, negative = growth inhibition
O=C(Cn1ncc2c3ccccc3n(Cc3ccc(F)cc3)c2c1=O)N1CCN(c2ncccn2)CC1 | active: 18.4 µM | 
COc1ccc(CNc2nc3ccccc3n2Cc2ccc(C)cc2)cc1OC | inconclusive: 29.1 µM [inhibitor, single point] | 
CN(c1ccccc1)C(c1ccc(F)cc1)c1nnnn1C1CCCC1 (stereo unspecified) | inconclusive: 16.4 µM [inhibitor, single point] | 
CCOC(=O)N1CCN(S(=O)(=O)c2cccc3cccnc23)CC1 | inactive | 
COc1cccc(CNc2ccc3[nH]c(=O)[nH]c3c2)c1OCc1ccccc1Cl | inconclusive: 29.1 µM [inhibitor, single point] | 
Cc1ccsc1/C=N\NC(=O)Cn1nnc2ccccc21 | inconclusive: 23.1 µM [inhibitor, partial curve] | 
Cc1ccc(/C=N/Nc2ccc(F)cc2)s1 | inconclusive: 13 µM [inhibitor, single point] | 
CC(=O)n1nc(-c2ccco2)nc1SCc1ccccc1 | inconclusive: 29.1 µM [inhibitor, single point] | 
Cc1noc(C)c1S(=O)(=O)Nc1ccc2c(c1)C(=O)N([C@H](C)CO)C[C@H](C)[C@@H](CN(C)C(=O)Nc1ccc(C(F)(F)F)cc1)O2 | inactive | 
CN1C(=S)SC(C)(C)C1/[N+]([O-])=C/c1cccnc1 (stereo unspecified) | inactive | 
CCCS(=O)(=O)NCc1c(C)ncc2c1CCN(C(=O)/C=C/c1ccccc1)C2 |  | inactive: -9.22% [at 9.04 µM]
CC(C)n1cnc2c(NCc3ccccc3)cc(Cc3ccc(F)cc3)cc21 | inconclusive: 23.1 µM [inhibitor, single point] | 
c1ccc(N(c2ccccc2)c2nc(-n3ccnc3)nc(-n3ccnc3)n2)cc1 | inconclusive: 11.6 µM [inhibitor, partial curve] | 
COc1ccc(OC)c(N(CC(=O)N2CCCC2)S(=O)(=O)c2ccc(OC)c(OC)c2)c1 |  | inconclusive: -30.8% [inhibitor]
COc1cccc(NC(=O)COc2ccccc2C(=O)Nc2ccccc2)c1 | inconclusive: 14.1 µM [inhibitor, partial curve] | 
COC(=O)c1ccc(NC(=O)CS(=O)(=O)c2ccccc2)cc1 | inactive | 
CCCCn1cnc2c(SCc3cccc(F)c3)nc(N)nc21 | inactive | 
C=CCN(CC(=O)Nc1c(C)cccc1CC)C(=O)SCCC |  | inconclusive: -35% [inhibitor]
COc1ccc(C(=O)NCCSCc2ccccc2Cl)cc1OC | inactive | 
Cc1ccc(-n2nc3c(=O)n(CC(=O)NC(C)C)nc(C)c3c2C)cc1 | inactive | 
COc1ccc(S(=O)(=O)c2c(Nc3c(C)cccc3C)sc(C(=O)c3ccc4c(c3)OCO4)c2N)cc1 | active: 5.17 µM | 
c1ccc2c(C3OCC4(CCCCC4)CO3)cccc2c1 | inactive | 
COc1cc(NC(=O)CC2C(=O)N(c3cccc(C)c3)C(=O)N2Cc2ccco2)cc(OC)c1 (stereo unspecified) | inconclusive: 29.1 µM [inhibitor, partial curve] | 
COc1ccc(N/N=C(/C)c2cnnc(-c3ccccc3)n2)cc1 | inconclusive: 23.1 µM [inhibitor, single point] | 

Compound | Potency | activity change, negative = growth inhibition
O=C(Nc1ccc2oc(-c3cccnc3)nc2c1)c1ccc(-c2cccc(Cl)c2)o1 | inactive | 
O=C(COC(=O)c1ccccc1NCCO)NCCc1ccccc1 | inactive | 
COc1ccc(CN(C)c2ccc(-c3nc(-c4ccccc4)no3)cc2[N+](=O)[O-])cc1 | inconclusive: 14.6 µM [inhibitor, partial curve] | 
Cn1c(-[n+]2c(-c3ccccc3)cc(-c3ccccc3)cc2-c2ccccc2)nc2cc([N+](=O)[O-])ccc21 | inconclusive: 10.3 µM [inhibitor, partial curve] | 
CCCCN1C2=C(C(=O)CC(C)(C)C2)C(c2ccccc2)C2=C1c1ccccc1C2=O (stereo unspecified) | inconclusive: 16.4 µM [inhibitor, single point] | 
CC1CCCN(c2ccc(C(=O)NCCc3ccccc3)cn2)C1 (stereo unspecified) | inconclusive: 25.9 µM [inhibitor, partial curve] | 
O=C(NC(=S)NN1CCOCC1)c1cc(Br)ccc1Cl | inactive | 
COc1ccc2c(CC(=O)Nc3ccc(C)cc3)coc2c1 | inconclusive: 14.6 µM [inhibitor, single point] | 
Cn1ccc2c(-c3ccc(C(N)=O)cc3)cc3c(c21)C1CCC3C1 (stereo unspecified) | inconclusive: 25.9 µM [inhibitor, single point] | 
COCCn1c(SCc2cccc([N+](=O)[O-])c2)nc2ccccc2c1=O | inconclusive: 29.1 µM [inhibitor, single point] | 
COc1ccc(NC(C)C(=O)Nc2cc(C(F)(F)F)ccc2N2CCOCC2)c(OC)c1 (stereo unspecified) | inconclusive: 23.1 µM [inhibitor, single point] | 
CCCC(CCC)=NNc1ccc(S(=O)(=O)Nc2ccccc2OC)cc1[N+](=O)[O-] | inconclusive: 29.1 µM [inhibitor, single point] | 
COc1ccc([N+](=O)[O-])cc1C1NN=C(c2cccc3ccccc23)S1 (stereo unspecified) | inconclusive: 29.1 µM [inhibitor, single point] | 
Cc1ccc(S(=O)(=O)c2ccc(Cl)cc2)cc1S(N)(=O)=O | inactive | 
CC(C)Sc1nc(N2CCOCC2)c2c(c1C#N)CC(C)(C)SC2 | inconclusive: 25.9 µM [inhibitor, single point] | 
C=C(C)C(COc1c2occc2cc2ccc(=O)oc12)OC(C)(C)C(O)COc1c2occc2cc2ccc(=O)oc12 (stereo unspecified) | active: 13 µM | 
CC(C)(C)c1cc(NC(=O)C2(C)CCN2C(=O)C2(c3ccccc3)CC2)no1 (stereo unspecified) | inconclusive: 16.4 µM [inhibitor, single point] | 
CC1CCCCC1NC(=O)Cn1cnc2sccc2c1=O (stereo unspecified) | inactive | 
COC(=O)c1c(NC(=O)/C=C/C(=O)O)sc(Cc2ccccc2)c1C | active: 20.6 µM | 
O=C(COC(=O)Cc1n[nH]c(=O)c2ccccc12)Nc1ccc(Cl)cn1 | inactive | 
CC(=O)Nc1ccc(CN2C(=O)C(Cc3ccccc3)ON=C2c2ncccc2C)cc1 (stereo unspecified) | inconclusive: 29.1 µM [inhibitor, single point] | 
Cn1c(C(c2cc3ccccc3n2C)c2cc3ccccc3n2C)cc2ccccc21 | active: 5.62 µM | 
O=C(CSC(=S)N1CCOCC1)Nc1ccc(S(=O)(=O)Nc2ncccn2)cc1 | inactive | 
